Measurements reported in PubChem BioAssay AID1159614 (National Center for Advancing Translational Sciences (NCATS), 2016).
The whole screen tested about 45,000 compounds, of which about 65 (0.1%) were called active. Calls come from the whole dose curve; as a rule, active = well fitted activation curve with a large enough effect; inconclusive = small, poorly fitted or top-dose-only effect; inactive = no such curve, though single readings can be large or run the other way. The list shows a part of the results.

target: Galactocerebrosidase (Homo sapiens) (UniProt P54803); assay: A Novel Cell-Based Assay to Identify Small Molecules for B -Galactocerebrosidase; conditions: 145M-Twi-hGALC-G270D cells (Twitcher mouse brain line with human GALC G270D), HMU-beta-Gal fluorescence, 48 h; series mostly up to 57.5 µM; activation: at the top concentration; note: 0% is about no effect; nearly all actives have a fitted effect of over 65% in size
Method in brief: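 Fluorescence readout: HMU-β-gal cleavage by mutant GALC (0.1 mM final, citrate/phosphate pH 5.2 with 1 mg/mL taurocholate), stopped with carbonate/bicarbonate plus Triton X-100. Cells: murine Twitcher 145M-Twi expressing human G270D GALC; qHTS for activators.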

Sequence of UniProt P54803 (P54803 whole entry, looked up): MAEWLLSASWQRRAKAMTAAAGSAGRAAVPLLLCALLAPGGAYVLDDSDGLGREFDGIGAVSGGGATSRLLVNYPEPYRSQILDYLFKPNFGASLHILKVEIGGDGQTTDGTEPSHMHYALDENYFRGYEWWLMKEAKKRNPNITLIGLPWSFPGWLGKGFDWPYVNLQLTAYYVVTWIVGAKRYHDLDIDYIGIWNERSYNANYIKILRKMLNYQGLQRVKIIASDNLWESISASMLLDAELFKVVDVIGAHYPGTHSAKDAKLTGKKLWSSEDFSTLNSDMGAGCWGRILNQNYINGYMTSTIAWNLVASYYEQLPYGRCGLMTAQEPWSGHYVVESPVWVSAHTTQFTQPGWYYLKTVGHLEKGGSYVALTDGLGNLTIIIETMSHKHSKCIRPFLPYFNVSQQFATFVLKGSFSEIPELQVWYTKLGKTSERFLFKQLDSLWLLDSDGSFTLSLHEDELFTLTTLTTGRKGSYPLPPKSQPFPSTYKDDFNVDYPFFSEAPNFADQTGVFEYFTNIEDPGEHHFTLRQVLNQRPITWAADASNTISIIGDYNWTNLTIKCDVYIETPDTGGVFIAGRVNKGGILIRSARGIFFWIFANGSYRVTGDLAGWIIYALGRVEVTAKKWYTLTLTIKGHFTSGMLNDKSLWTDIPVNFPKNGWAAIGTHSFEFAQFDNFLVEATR

Row | SMILES | activation
1 | O=C(NC1CCCCC1)c1ccc(CSc2nc3ccncc3n2Cc2ccccc2F)cc1 | inactive: -15.3%
2 | COc1ccc(NC(=O)CSc2nc(-c3cccs3)cc(C(F)(F)F)n2)c(OC)c1 | inactive: -10.2%
3 | Cc1ccc(NC(=O)Cn2cc3c(n2)CCCC3)c(C)c1 | inactive: -13.9%
4 | COCCCNC(=O)c1ccc2c(c1)nc1n2CCCCC1 | inactive: 8.56%
5 | CCOc1ccc2nc(N3CCC(C(=O)Nc4cc(C)ccc4C)CC3)sc2c1 | inactive: -12.5%
6 | Cc1ccc(Cl)cc1NC(=O)CCn1c(=O)c2cccn2c2cccnc21 | inactive: -6.51%
7 | Cc1noc(Cn2c(=O)c3cc4c(cc3n(CC(=O)Nc3ccccc3F)c2=O)OCO4)n1 | inactive: -13.4%
8 | O=C(CSCc1cnn(-c2ccccc2)c1-n1cccc1)NCc1ccc(F)cc1 | inactive: -16.7%
9 | CCN(CC)CCCNC(=O)CSc1nc(-c2ccc(OC)cc2)cc(C(F)(F)F)n1 | inactive: -19.6%
10 | CCc1ccc(NC(=O)CSc2ccc(-c3cccs3)nn2)cc1 | inactive: -3.56%
11 | Oc1c(C(c2ccccc2Cl)N2CCN(Cc3ccccc3)CC2)sc2nc(-c3ccco3)nn12 (stereo not drawn) | inactive: -1.67%
12 | CCOc1ccc(NC(=O)c2ccc3snnc3c2)cc1 | inactive: -13%
13 | Cc1nc(N2CCCC2)c2c(C(=O)Nc3ccc(Br)cc3F)c(C)oc2n1 | inactive: 0.563%
14 | CCOC(=O)C1CCC(CN(Cc2ccc(OC)cc2)S(=O)(=O)c2ccc(F)c(C(=O)Nc3cc(C)ccc3C)c2)CC1 (stereo not drawn) | inactive: -10.3%
15 | CCOC(=O)c1cnc2ccc(OCC)cc2c1N1CCN(c2ccccc2F)CC1 | inactive: -18.2%
16 | CC(=O)c1cc(-c2ccccc2)n(CC(=O)NCCc2ccc(C)cc2)c1C | inactive: -9.39%
17 | CC(C)Oc1ccc(CNC(=O)C2CCN(C(=O)N3CC(C)Oc4ccccc43)CC2)cc1 (stereo not drawn) | inactive: -16.1%
18 | CCOC(=O)c1ccc(CN(Cc2ccccc2)S(=O)(=O)c2ccc(Cl)cc2)cc1 | inactive: -0.72%
19 | Cc1cccc(-c2nc(CSc3nncn4c3cc3sccc34)c(C)o2)c1 | inactive: -9.07%
20 | FC(F)(F)c1cc(-c2cccc(Br)c2)nc2ncnn12 | inactive: -1.19%
21 | CCOC(=O)c1c(C)n(-c2ccccc2)c2ccc(OC(=O)c3cccc(Cl)c3)cc12 | inactive: -9.34%

Row | SMILES | activation
22 | Cc1ccccc1C(=O)Nc1nc(-c2ccc(Br)cc2)ns1 | inactive: -14.6%
23 | COc1ccc(-c2csc3nc(-c4ccccc4)oc(=O)c23)cc1OC | inactive: -3.26%
24 | CC(C)NC(=O)C1CCC(Cn2c(=O)c3sccc3n(CC(=O)Nc3ccccc3)c2=O)CC1 (stereo not drawn) | inactive: -15.8%
25 | CCCCCNC(=O)c1cc2c(=O)n3ccccc3nc2n1C | inactive: -3.13%
26 | CN(C)C(=O)c1ccc(NC(=O)Cn2nc(-c3ccccc3)c3ccccc3c2=O)cc1 | inactive: -15.4%
27 | Clc1cccc(-n2ncc3c(NCCc4ccccc4)ncnc32)c1 | inactive: -6.84%
28 | CCCOc1ccc(C2C(=O)N(C3CCCCC3)CC(=O)N2CCc2ccccc2)cc1OC (stereo not drawn) | inactive: 4.53%
29 | CCOC(=O)c1cccc(NS(=O)(=O)c2cc(-c3cnc(C)o3)ccc2OC)c1 | inactive: -3.53%
30 | CC(=O)Nc1ccc(OCc2cc(=O)n3ccccc3n2)cc1 | inactive: -11.7%
31 | COc1cccc(CN2CCc3nc(Nc4ccc5c(c4)OCCO5)ncc3C2)c1OC | inactive: -3.74%
32 | COc1ccccc1N1CCN(C(CNC(=O)C(=O)NCCN(C)C)c2cccnc2)CC1 (stereo not drawn) | inactive: -8.68%
33 | Cc1cccc(NC(=O)c2c(NC(=O)c3cccs3)sc3c2CCC(C)C3)c1 (stereo not drawn) | inactive: -18.4%
34 | CCCCNC(=O)C(CC)Sc1nnc(-c2ccc(F)cc2)c(-c2ccc(F)cc2)n1 (stereo not drawn) | inactive: -19.8%
35 | Cc1ccc(-c2noc(-c3ccccc3NC(=O)C3CC(=O)N(c4cccc(C)c4)C3)n2)cc1 (stereo not drawn) | inactive: -0.944%
36 | Cc1cccc(NC(=O)CSc2nc(=O)n(Cc3ccncc3)c3c2CCC3)c1C | inactive: 5.12%
37 | CCOc1ccc(NC(=O)c2cc(=O)c3cc(CC)ccc3o2)cc1 | inactive: -2.86%
38 | CCc1ccc(C2=C(C)C(N3CCC(C(=O)Nc4cccc(OC)c4)CC3)=NS2(=O)=O)cc1 | inactive: -20.2%
39 | CCOc1ccc(NC(=O)CSc2nc(-c3cccs3)cc(C(F)(F)F)c2C#N)cc1 | inactive: -11.5%
40 | Oc1ccc(/C=C/c2nc(-c3ccccc3O)n(-c3ccccc3)n2)c(O)c1 | inactive: -23.8%
41 | COc1cc(NS(=O)(=O)c2ccc3c(c2)CC(=O)N3)cc(OC)c1OC | inactive: -7.96%
42 | CCc1ccccc1NC(=O)Cn1nnc(-c2nc(-c3ccncc3)no2)c1N | inactive: -18.8%

Row | SMILES | activation
43 | Cc1ccc(NC(=O)C2CCN(S(=O)(=O)c3ccc4c(c3)CCCC(=O)N4)CC2)c(Cl)c1 | inactive: -28.4%
44 | COc1ccc(CCNC(=O)c2ccc3c(c2)sc2nc(-c4ccc(C)cc4)cn23)cc1OC | inactive: 1.73%
45 | CCOc1ccc(Nc2c(S(=O)(=O)c3ccc(C)cc3)cnc3cc(OC)c(OC)cc23)cc1 | inactive: -7.96%
46 | COc1ccccc1NC(=O)CSC1=Nc2ccccc2C2=NC(CC(=O)NCCc3ccccc3)C(=O)N12 (stereo not drawn) | inactive: -3.91%
47 | COc1cc(NS(=O)(=O)c2ccc3[nH]c(=O)[nH]c3c2)cc(OC)c1 | inactive: -21.2%
48 | CCOc1ccc(NC(=O)CN2CCN(CC(=O)Nc3ccc(N(CC)CC)cc3)CC2)cc1 | inactive: -8.73%
49 | CCCCC(=O)Nc1ccc2nc(SCC(=O)N3CCOCC3)sc2c1 | inactive: -7.1%
50 | Cc1ccc(NC(=O)c2c(C)oc3ncn(C)c(=O)c23)cc1F | inactive: -13.8%
51 | COc1cccc2c1Oc1ncccc1N(c1ccc(C(=O)NCc3ccccc3C)s1)C2 | inactive: -8.25%
52 | O=C(NCc1ccccc1Cl)c1ccc2c(c1)nnn2C1CCCC1 | inactive: -11.1%
53 | O=C(NC1(C(F)(F)F)C(=O)Nc2c1c(=O)[nH]c(=O)n2CCc1ccccc1)c1ccc(Cl)cc1 (stereo not drawn) | inactive: -8.83%
54 | Cc1ccc(Cl)cc1NC(=O)c1ccc(NC(=O)N2CCSc3ncccc32)cc1 | inactive: -10.3%
55 | COc1ccccc1C(=O)n1nc(-c2cccnc2)nc1NCc1ccccc1 | inactive: -11.6%
56 | Cc1ccc(OCC(=O)Nc2nnc(SCc3cc(=O)c4ccccc4[nH]3)s2)cc1C | inactive: 6.77%
57 | Cc1cccc(-c2nc3c4ccccc4nc(N4CCN(c5ccc(F)cc5)CC4)n3n2)c1 | inactive: -1.14%
58 | CC1=C(c2ccc(C(C)C)cc2)S(=O)(=O)N=C1N1CCN(c2ccc(F)cc2)CC1 | inactive: -5.23%
59 | O=C(CCCc1ccccc1)NC1CC(=O)N(c2ccc(Cl)cc2)C1 (stereo not drawn) | inactive: -18.2%
60 | CC1=Nc2cc(C(=O)NC3CCCCC3)ccc2Sc2ccc(Cl)cc21 | inactive: -27.1%
61 | COc1ccc(NC(=O)c2coc(=O)c3ccccc23)cc1OC | inactive: -19%
62 | O=C(Nc1ccc2oc(-c3ccccc3)nc2c1)c1ccc2ccccc2c1 | inactive: 5.63%
63 | CC(=O)N1c2ccc(S(=O)(=O)N3CCCCCC3)cc2CC1C(=O)NCc1ccccc1 (stereo not drawn) | inactive: -4.55%
